The campaign covered roughly 50,000 compounds. About 800 (1.6%) showed an effect of 50% or more. Some of the results follow.
The molecules below were run against Bcl-2-like protein 10 (Homo sapiens) (UniProt Q9HD36) (assay: TR3 peptide-Bcl-B binding displacers, biochemical primary FP assay, phenotype converters (AID 1240;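 further: 0% = Bcl-B with tracer peptide and DMSO and 100% = tracer peptide lacking Bcl-B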)). Conditions: GST-Bcl-B / FITC-TR3 peptide fluorescence polarization; stronger effect = higher value; compound at 3.75 mg/L.
UniProt Q9HD36, sequence (Q9HD36 whole entry, looked up): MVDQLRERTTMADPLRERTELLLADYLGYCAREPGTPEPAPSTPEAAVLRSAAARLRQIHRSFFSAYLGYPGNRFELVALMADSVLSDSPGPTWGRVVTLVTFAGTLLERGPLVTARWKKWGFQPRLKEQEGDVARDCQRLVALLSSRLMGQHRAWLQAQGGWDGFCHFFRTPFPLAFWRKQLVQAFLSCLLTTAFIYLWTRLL
With `CC1(C)CC(=O)c2cnc(NC(=O)/C=C/c3cccc([N+](=O)[O-])c3)nc2C1` the displacement was 26.3%.
`CCN(CC)c1ccc(/C=C(\C#N)C(=O)NC2CCS(=O)(=O)C2)cc1` (centres undefined) was tested, and the displacement was -3.1%.
In the case of `Cc1cc2c(cc1C)CN(c1ccc(C=Nc3ccc(Br)cc3)cc1)C2`, the displacement is reported as 1%.
`O=C(Nc1ccc(Cl)c(Cl)c1)Nc1cccc(Cl)c1Cl` gave a displacement of 5.9%.
`Cc1cc(=O)[nH]c(N(C)Cc2ccccc2)n1` was tested, and the displacement was -6.2%.
`COc1ccc(C2C(C(=O)OC(C)C)C(=O)CC(C)(O)C2C(=O)OC(C)C)cc1OC` (centres undefined) showed a displacement of 8.3%.
`COC(=O)C1=CN(Cc2ccc(OC)cc2)C=C(C(=O)OC)C1c1ccc(C)s1` showed a displacement of 2.4%.
For `Cc1ccc(NC2=CC(c3ccc([N+](=O)[O-])cc3)N(c3ccc(C)cc3)C2=O)cc1` (centres undefined), the displacement was -1.5%.
With `O=C(Nc1ccc2[nH]c(=O)[nH]c2c1)c1cccnc1` the displacement was 14.4%.
For `COc1ccc(-c2noc(C34CC5CC(CC(C5)C3)C4)n2)cc1`, the displacement was -11.6%.
`COc1cc2ccccc2cc1C(=O)Nc1ccc(I)cc1Cl` showed a displacement of 26.7%.
`Cc1cccc(-n2c(C)cc(/C=N/n3cnnc3)c2C)c1` was tested, and the displacement was 5.3%.
With `CC1=C(C(=O)OCc2ccccc2)C(c2ccc(F)c(Br)c2)CC(=O)N1` (centres undefined) the displacement was -6.1%.
`CC(=O)/C=C/c1ccc(-c2cccc([N+](=O)[O-])c2)o1` showed a displacement of -5.2%.
`COc1ccc(NC(=O)CN(c2ccccc2Cl)S(C)(=O)=O)c(OC)c1` showed a displacement of 5.9%.
`COc1ccc(NC(=O)c2sc3cc(C)ccc3c2Cl)c([N+](=O)[O-])c1` gave a displacement of 9.1%.
In the case of `CCc1ccccc1NC(=O)C(=O)NCc1ccco1`, the displacement is reported as 8.7%.
Molecule `COc1ccc(OC)c(NC(=O)C(=O)NNS(=O)(=O)c2ccccc2)c1` has a displacement of -5.3%.
Molecule `O=C(Nc1cccc(-c2nc3ccccc3s2)c1)c1cc2ccccc2oc1=O` has a displacement of 4%.
`COc1ccc(/C(C)=N/NC(=O)COc2ccc(Cl)cc2Cl)cc1OC` showed a displacement of 1.2%.
`Cc1[nH][nH]c(=O)c1C(c1ccccc1F)C(C#N)C#N` (centres undefined) gave a displacement of -0.4%.
With `O=C(Nc1nncs1)c1cc(-c2ccccc2Cl)nc2ccccc12` the displacement was 0.8%.
`COc1cc2c(cc1NC(=O)c1c(-c3c(Cl)cccc3Cl)noc1C)oc1ccccc12` gave a displacement of -0.2%.
In the case of `Cc1cc2nc(-c3cc(NC(=O)c4ccc5c(c4)OCCO5)ccc3O)oc2cc1C`, the displacement is reported as 42%.
`Cc1ccc(-c2cc(C(F)(F)F)n3ncc(C(=O)NCCCN4CCOCC4)c3n2)cc1` showed a displacement of 9.9%.
For `Cc1cccc(C)c1OCC(=O)Nc1ccccc1O`, the displacement was 13.6%.
`CC(C)C1S/C(=N/N=C/c2ccc(O)cc2)NC1=O` (centres undefined) gave a displacement of -12.9%.
Molecule `CCOC(=O)COc1ccc(/C=C2/C(=O)NN(c3cccc(Cl)c3)C2=O)cc1OC` has a displacement of -3.3%.
In the case of `Cc1cc(C(=O)Nc2cccc(O)c2)c(C)o1`, the displacement is reported as 16.3%.
For `O=C(NN1C(=O)C2CC=CCC2C1=O)c1ccncc1` (centres undefined), the displacement was -20.9%.
In the case of `COc1cc(C=C2C(=O)N(C)C(=O)N(C)C2=O)ccc1OCCOc1ccc(C)cc1`, the displacement is reported as 6%.
In the case of `CCOC(=O)C1=CN(c2ccc(F)cc2)C=C(C(=O)OCC)C1c1ccc(F)cc1`, the displacement is reported as -1.2%.
`COc1ccccc1OCCOc1ccccc1OC` showed a displacement of 7.3%.
With `COc1ccc(OC)c(/C=C/C(=O)c2cccc([N+](=O)[O-])c2)c1` the displacement was -6.4%.
For `O=C(COc1ccc(Cl)cc1Cl)Nc1ccccc1C(=O)Nc1ccccc1`, the displacement was -5.8%.
For `CC1=C(C(=O)OC2CCCC2)C(c2ccccc2)C2=C(CC(c3ccc(Cl)cc3)CC2=O)N1` (centres undefined), the displacement was -6.2%.
`CN1C(=O)NC(=O)/C(=C/c2cc3c(cc2Br)OCO3)C1=O` gave a displacement of 4.3%.
For `O=c1/c(=C/c2cccs2)sc2nc3ccccc3n12`, the displacement was 7.2%.
`COc1ccc(C/C(O)=C(\C#N)c2nc3ccccc3[nH]2)cc1` gave a displacement of 46.4%.
For `Cc1ccccc1N(CC(=O)N1CCOCC1)S(C)(=O)=O`, the displacement was 2.7%.
`Cc1cc(/C=N/N2C(=O)c3ccccc3C2=O)c(C)n1-c1ccc(N(C)C)cc1` was tested, and the displacement was 3.5%.
For `COc1ccc(NS(=O)(=O)c2ccc(F)cc2)cc1OC`, the displacement was 3.9%.
With `Cc1cccc(NC(=O)c2cc(Cl)ccc2Cl)n1` the displacement was 4.6%.
In the case of `O=C(Nc1ccc(S(=O)(=O)Nc2nccs2)cc1)c1ccc([N+](=O)[O-])cc1Cl`, the displacement is reported as 0.9%.
With `COC(=O)c1ccc(/C=N/NC(=O)COc2ccc(C(C)(C)CC(C)(C)C)cc2[N+](=O)[O-])cc1` the displacement was 7.7%.
For `N#CC1=C(N)Oc2cc(O)ccc2C1C1CCCCC1` (centres undefined), the displacement was -7.1%.
`N/C(=N\N=C\c1ccccc1O)c1nonc1N` was tested, and the displacement was -7.8%.
With `COc1ccc(-c2ccc(/C=N/NC(=O)C(O)c3ccccc3)o2)cc1Cl` (centres undefined) the displacement was 9.8%.
With `CCOC(=O)CSc1nc2sc3c(c2c(=O)[nH]1)CC(C)(C)OC3` the displacement was 1.1%.
Work on `O=C(CCc1ccccc1)Nc1nc(-c2ccccc2)cs1` yielded a displacement of 2.1%.
`CSc1ccc(/C=C2/SC(=S)N(CC(=O)O)C2=O)cc1` was tested, and the displacement was -2.4%.
`O=C(CN1C(=O)/C(=C\c2ccccc2Cl)SC1=S)Nc1ccc([N+](=O)[O-])cc1O` showed a displacement of -5%.
`O=C1C2=C(Nc3ccccc3SC2c2ccc([N+](=O)[O-])cc2)c2ccccc21` (centres undefined) was tested, and the displacement was -6%.
For `CCCCOC(=O)c1ccc(NC(=O)COc2ccc3c(c2)oc(=O)c2ccccc23)cc1`, the displacement was -4.7%.
In the case of `COc1ccc(-c2nc(NC(=O)c3ccco3)sc2-c2ccc([N+](=O)[O-])cc2)cc1`, the displacement is reported as 5.5%.
Work on `O=C(NC12CC3CC(CC(C3)C1)C2)c1ccc(F)cc1` yielded a displacement of 4.3%.
With `CC(=O)c1oc2ccc3c(C)cc(=O)oc3c2c1-c1ccccc1` the displacement was -10.7%.
`O=C(Nc1ccccc1[N+](=O)[O-])c1ccc2ccccc2n1` showed a displacement of 89.3%.
With `COc1ccc(C2NC(=O)NC(C)=C2C(C)=O)cc1` (centres undefined) the displacement was 17.3%.
In the case of `COc1ccc(Nc2nc(Nc3ccc([N+](=O)[O-])cc3)nc(OC)n2)cc1`, the displacement is reported as 9.1%.
`O=S(=O)(c1ccc(C=Nc2ccc(Br)cc2)cc1)c1ccc(C=Nc2ccc(Br)cc2)cc1` gave a displacement of -8.7%.
`CCOc1ccc2ccccc2c1/C=C1/C(=O)NC(=O)N(C)C1=O` gave a displacement of -8.4%.
In the case of `COc1ccccc1OCCOc1ccc(/C=N/N2C(=O)CSC2=S)cc1`, the displacement is reported as 13.5%.
`CCCCS(=O)(=O)C(=C(Nc1ccc(OC)cc1)Nc1ccc(OC)cc1)S(=O)(=O)CCCC` was tested, and the displacement was -0.7%.
With `COC1(/C(=C/C(=O)c2ccc(C)cc2)Nc2ccccc2)CCCCC1` the displacement was 4.5%.
`COc1cc(C2NC(=O)NC(C)=C2C(=O)OCCOc2ccccc2)cc(Cl)c1O` (centres undefined) was tested, and the displacement was 13.9%.
`COc1ccccc1N1C(=O)C2C3C=CC(CC3)C2C1=O` (centres undefined) gave a displacement of 5.3%.
`Cc1ccccc1C(=O)NNC(=O)c1ccco1` showed a displacement of -17.2%.
`COc1ccc(-c2nn(-c3ccccc3)c(N)c2-c2ccccc2)cc1OC` was tested, and the displacement was 11.2%.
For `Cc1cc(C)cc(N2C(=O)NC(=O)/C(=C\c3sccc3C)C2=O)c1`, the displacement was 20.5%.
For `CC(C)(C(=O)c1ccccc1)/[N+]([O-])=C/c1ccc(Br)cc1`, the displacement was -8.7%.
Molecule `Cc1ccc(S(=O)(=O)N(Cc2ccccc2)c2ccccc2C(=O)NCCc2ccccc2)cc1` has a displacement of 17.3%.
Molecule `Cc1ccc(NC(=O)/C(=C/c2cccc([N+](=O)[O-])c2)NC(=O)c2ccccc2)c(Br)c1` has a displacement of -0.3%.
In the case of `O=C(O)CNC(=O)c1ccccc1Cl`, the displacement is reported as -12.2%.
Work on `CCc1ccc(-c2nc3cc(NC(=S)NC(=O)c4ccco4)ccc3o2)cc1` yielded a displacement of 14.6%.
`Cc1ccc(/C=C2\SC(=O)N(CCC(=O)Nc3c(C)n(C)n(-c4ccccc4)c3=O)C2=O)cc1` gave a displacement of 4.4%.
Molecule `O=C(Nc1cccnc1)c1cccc(Cl)c1Cl` has a displacement of 13.1%.
`CCOc1ccccc1NC(=O)C(=O)NCCc1ccc(OC)c(OC)c1` was tested, and the displacement was 6.4%.
Work on `COc1ccc(N(CC(O)CN(Cc2ccccc2)Cc2ccccc2)S(=O)(=O)c2ccc(C)cc2)cc1` (centres undefined) yielded a displacement of 8.3%.
In the case of `COC(=O)c1ccc(N2C(=O)CC(N3CCN(c4ccc(Cl)cc4)CC3)C2=O)cc1` (centres undefined), the displacement is reported as -4.6%.
For `O=C1S/C(=C/c2ccc([N+](=O)[O-])cc2)C(=O)N1c1ccccc1`, the displacement was 0.2%.
`O=C(COc1ccc2ccccc2c1)NNC(=O)c1cccc(Cl)c1` gave a displacement of -8%.
For `COc1ccccc1OCCOc1c(Cl)cc(/C=N/n2cnnc2)cc1OC`, the displacement was -10.1%.
Molecule `COc1ccc(C2CC(C(F)(F)F)n3nc(C(=O)Nc4cccc(Cl)c4Cl)c(Cl)c3N2)cc1` (centres undefined) has a displacement of 2.8%.
In the case of `O=c1c2ccccc2nc2n1C1(CCCCC1)Cc1ccccc1-2`, the displacement is reported as -5.9%.
`CC(=O)N(C)N1c2ccccc2CCc2ccccc21` gave a displacement of -1%.
`Cc1ccc(OCC(=O)Nc2cc([N+](=O)[O-])ccc2Cl)c(Br)c1` showed a displacement of -3.6%.
Work on `CN(Cc1ccccc1)C(=O)c1nn2c(C(F)(F)F)c3c(nc2c1Cl)-c1ccccc1CC3` yielded a displacement of 5.2%.
Work on `CCOC(=O)C1=C(C)N=c2s/c(=C\c3ccc(O)c(OC)c3)c(=O)n2C1c1cccc(OC)c1` (centres undefined) yielded a displacement of -2.1%.
Work on `O=[N+]([O-])c1cccc(Cl)c1C1NN=C(Cc2ccccc2)S1` (centres undefined) yielded a displacement of -9.8%.
With `CN1CCN(C(=O)c2cc3nc(-c4cccs4)cc(C(F)(F)F)n3n2)CC1` the displacement was 0.5%.
In the case of `CC(C)NC(=O)c1c(NC(=O)c2cccs2)sc2c1CCCC2`, the displacement is reported as -3.3%.
Work on `COc1ccc(C2/C(=C(/O)c3ccccc3)C(=O)C(=O)N2c2cccc(C(F)(F)F)c2)cc1OC` (centres undefined) yielded a displacement of 3.4%.
With `Cc1onc(-c2ccccc2Cl)c1C(=O)Nc1sc2c(c1C(N)=O)CCCC2` the displacement was -12.9%.
For `O=C(N/N=C/c1cccc(O)c1)c1cc(-c2ccccc2)n[nH]1`, the displacement was -19.3%.
Molecule `COc1ccc(CC(=O)N2N=C(C)CC2(O)c2cccnc2)cc1OC` (centres undefined) has a displacement of -28.2%.
Molecule `COc1cccc(/C=C2/C(=O)ON=C2c2ccccc2)c1OC` has a displacement of 16.3%.
`O=C(O)c1nc2n(n1)C(C(F)(F)F)CC(c1cccs1)N2` (centres undefined) showed a displacement of 3.3%.
`O=S(=O)(c1ccc(NC(=S)Nc2ccc(F)cc2)cc1)N1CCc2ccccc21` showed a displacement of -4.8%.
`CCOC(=O)c1c(N)sc(C)c1-c1ccc(CC(C)C)cc1` was tested, and the displacement was -2.7%.
In the case of `OC(CNCC1CCCO1)Cn1c2ccc(Br)cc2c2cc(Br)ccc21` (centres undefined), the displacement is reported as 5.4%.
`COc1cc(C=C2C(=O)NC(=O)NC2=O)cc(I)c1OCc1ccc(Cl)cc1` was tested, and the displacement was 11.6%.
In the case of `CC(Sc1n[nH]c(=O)[nH]c1=O)C(=O)OCc1ccccc1` (centres undefined), the displacement is reported as -4.2%.
In the case of `COc1ccc(-n2c(=O)c3c4c(sc3n3c(SCC(N)=O)nnc23)CCCC4)cc1`, the displacement is reported as 0.7%.

Source: PubChem BioAssay AID1240 (Sanford-Burnham Center for Chemical Genomics, 2008)
